In all, about 16,000 compounds went through this assay and about 120 (0.75%) were called active. Another 4% or so got no clear call; they are omitted. Calls follow the shape of the dose curve; as a rule, active = well fitted inhibition curve with a large enough effect; inconclusive = small, poorly fitted or top-dose-only effect; inactive = no such curve, though single readings can be large or run the other way. This is one part of the list.
The compounds below were run against Rap guanine nucleotide exchange factor 3 (Homo sapiens) (UniProt O95398) (assay: Validation qHTS for antagonist of cAMP-regulated guanine nucleotide exchange factor 3 (EPAC1)). Conditions: EPAC1 Rap1B-BODIPY-GDP exchange, fluorescence; series mostly up to 150 µM; activity change, negative = inhibition: at the top concentration.
Chain of UniProt O95398 (O95398 whole entry, looked up): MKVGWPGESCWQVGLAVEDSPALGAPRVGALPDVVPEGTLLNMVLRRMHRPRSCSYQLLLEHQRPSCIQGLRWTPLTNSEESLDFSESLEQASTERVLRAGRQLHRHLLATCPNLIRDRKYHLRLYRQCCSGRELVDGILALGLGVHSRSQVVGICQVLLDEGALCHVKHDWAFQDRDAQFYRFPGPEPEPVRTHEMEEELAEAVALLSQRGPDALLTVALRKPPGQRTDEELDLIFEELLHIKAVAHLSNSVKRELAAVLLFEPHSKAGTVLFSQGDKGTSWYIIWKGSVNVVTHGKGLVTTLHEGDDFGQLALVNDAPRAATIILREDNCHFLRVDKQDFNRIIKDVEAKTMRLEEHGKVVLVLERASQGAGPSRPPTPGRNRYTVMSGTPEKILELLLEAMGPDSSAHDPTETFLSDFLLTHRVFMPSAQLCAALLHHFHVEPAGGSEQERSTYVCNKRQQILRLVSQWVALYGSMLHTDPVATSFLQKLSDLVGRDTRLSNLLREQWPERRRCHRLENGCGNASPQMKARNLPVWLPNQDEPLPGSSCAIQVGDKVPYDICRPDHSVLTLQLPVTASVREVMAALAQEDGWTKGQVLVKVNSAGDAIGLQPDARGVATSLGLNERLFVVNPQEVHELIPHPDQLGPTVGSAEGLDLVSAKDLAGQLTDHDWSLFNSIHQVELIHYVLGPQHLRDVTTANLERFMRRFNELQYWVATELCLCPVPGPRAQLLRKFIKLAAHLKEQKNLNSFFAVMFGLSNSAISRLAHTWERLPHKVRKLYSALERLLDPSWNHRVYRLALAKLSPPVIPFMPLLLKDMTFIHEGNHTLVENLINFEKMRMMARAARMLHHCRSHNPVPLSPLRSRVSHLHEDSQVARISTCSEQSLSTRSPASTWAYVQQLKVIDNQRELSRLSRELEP
From the text: Assay Provider (PI): Xiaodong Cheng Ph.D.
The University of Texas Medical Branch, […], TX
In multi-cellular eukaryotic organisms, the effects of cAMP are transduced by two ubiquitously-expressed intracellular cAMP receptors, the classic protein kinase A/cAMP-dependent protein kinase (PKA/cAPK) and the more recently discovered exchange protein directly activated by cAMP/cAMP-regulated guanine nucleotide exchange factor (EPAC/cAMP-GEF). Both PKA and EPAC are ubiquitously expressed in all tissues, and an increase in intracellular cAMP levels will lead to the activation of both PKA and EPAC. Therefore, careful dissections of the individual role and relative contribution of EPAC and PKA within the overall cAMP signaling in various model systems are critical for further elucidating the mechanism of cAMP signaling. To date no EPAC-specific antagonists and agonist, as well as isoform-specific agonists have been reported, and developing EPAC-specific pharmacological probes to determine the physiological functions that EPAC play in the overall cAMP-mediated signaling remains a major challenge within the research field. Furthermore, identified regulators of EPAC may lead to new mechanism-based therapeutic strategies specifically targeting the EPAC / cAMP-signaling components as EPAC has been implicated to play important roles in major human pathological conditions such as diabetes, heart disease, and cancer.
This qHTS will be used to screen the Molecular Libraries Small Molecule Repository (MLSMR) as a concentration-titration series using the NCGC unique quantitative screening (qHTS) platform to find activators for EPAC1. In addition, this assay will also be used as a counterscreen for the EPAC2 qHTS. This fluorescent based assay is developed and validated for EPAC1 that measures exchange using EPAC effector Rap1 complex with BODIPY-GDP, a GDP analog with a tethered fluorophores. Activators are identified by monitoring the change in fluorescence signal as the exchanged free BODIPY-GDP has a reduced fluorescence compared to Rap1-bound BODIPY-GDP. Increase in signal (activation) is the desired outcome for the EPAC1 agonist while no activity in this assay is desired for the EPAC2 agonist counterscreen.
[1] de Rooij, J., Zwartkruis, F. J., Verheijen, M. H., Cool, R. H., Nijman, S. M., Wittinghofer, A., and Bos, J.L. (1998) Nature 396, 474-477.
Briefly, three uL of reagents (100 nM EPAC1, 250 nM RAP1B-BODIPY-GDP, 50 uM GDP) were dispensed into a 1536-well Greiner black solid-bottom medium binding assay plate. Controls and test compounds (23 nL) were transferred to the plate via a Kalypsys pin tool equipped with a 1536-pin array. The plates were centrifuged at 1,000 rpm for 15 seconds followed by 5 minute incubation at room temperature. The assay plates were read at 5 minute intervals for 30 minutes in the ViewLux plate reader using 480nm excitation and 540nm emission filters. The results were normalized to the […] positive control ATA and DMSO.
Also: nearly all actives have a fitted effect of over 75% in size.

Activity change, negative = inhibition, inactive:
O=c1cc(-c2cccc(O)c2O)oc2ccccc12 -21.7%, Cc1cn(C2CC(N=[N+]=[N-])C(CO)O2)c(=O)[nH]c1=O (centres undefined) 25.7%, N[C@H](Cc1ccccc1)C(=O)O 19.1%, COc1ccc(C2c3cc(OC)c(OC)cc3Cc3c4cc(OC)c(OC)cc4cc[n+]32)cc1OC (centres undefined) 7.29%, Cc1ncc2c(c1CNS(=O)(=O)N(C)C)CCN(C(=O)c1c(F)cccc1F)C2 12%, COc1ccccc1CNc1ncnc2ccc(-c3ccccc3CN(C)C)cc12 9.84%, Nc1c2c(nc3c1CCC3)CCCC2 -3.38%, COCC(=O)N1CCC2(CCN(Cc3nccs3)CC2)CC1 16.1%, Cc1c(N)nc(C(CC(N)=O)NCC(N)C(N)=O)nc1C(=O)NC(C(=O)NC(C)C(O)C(C)C(=O)NC(C(=O)NCCc1nc(-c2nc(C(=O)NCCCN[C@@H](C)c3ccccc3)cs2)cs1)C(C)O)C(O[C@@H]1O[C@@H](CO)[C@@H](O)[C@H](O)[C@@H]1O[C@H]1O[C@H](CO)[C@@H](O)[C@H](OC(N)=O)[C@@H]1O)c1cnc[nH]1 (some centres undefined) 24.8%, Cc1noc(C)c1C(=O)N1CCC2(CC1)CN(c1ccccc1)C2 15.9%, COc1ccc(/C=C/C(=O)c2ccc(C)s2)cc1 -0.912%, COC(=O)[C@H](C)NS(=O)(=O)C1CC1 -8.7%, CN(CCOc1ccc(NS(C)(=O)=O)cc1)CCc1ccc(NS(C)(=O)=O)cc1 17.9%, COc1ccc(NC(=O)N2CCC3(CC2)CCN(C(=O)c2ccco2)CC3)cc1 25.8%, COc1cc(=O)n2c(c1C(=O)NC(C)c1ccco1)CCN(C(=O)c1ccnc(Cl)c1)CC2 (centres undefined) 12.4%, COc1cc(C2c3cc4c(cc3C(OC3OC5COC(C)O[C@@H]5C(O)C3O)C3COC(=O)C23)OCO4)cc(OC)c1O (some centres undefined) 11.2%, C#C[C@]1(O)CC[C@H]2[C@@H]3CCc4cc(OC)ccc4[C@H]3CC[C@@]21C 14%, CC(N)(Cc1ccc(O)cc1)C(=O)O (centres undefined) 7.97% [at 75.8 µM], CC(C)NCC(O)c1ccc(NS(C)(=O)=O)cc1 (centres undefined), O=C(Oc1ccccc1)N1CCC2(CC1)CCN(c1ccncc1)CC2 15.1%, CC1=C(C)C(=O)C(CCCCC#CCCCC#CCO)=C(C)C1=O, O=c1c(-c2ccc(F)cc2)nc2cnc(Nc3ccccc3)nc2n1C1CC1 6.07%, CN(C)CCCCSC(=N)N, COC(=O)c1ccc(-c2cccc3c2OC(CNC(=O)/C=C/c2ccc(OC)c(OC)c2)C3)nc1 (centres undefined) -8.39%, COc1cc(C=O)ccc1O, O=c1c(-c2ccccc2)nc2cnc(N3CCNCC3)nc2n1C1CC1 23.5%, CC(C)c1c(C(=O)NCC(C)(C)N2CCOCC2)cnn1-c1nccc(-c2cccs2)n1 13%, COC(=O)c1ccc2nc3c(cc2c1)[C@@H]1CCN2C(=O)CCC[C@H](C3)[C@H]12 20.6%, CCCN(C/C=C\I)[C@@H]1CCc2cccc(O)c2C1 0.679%, Cc1nc2cnc(N3CCNCC3)nc2n(Cc2cccs2)c1=O -0.201%, O=C(C(=O)N1CCOc2ccc(CN3CCN(Cc4ccccn4)CC3)cc2C1)c1ccccc1 6.82%, CCCCCCCCCCCCCCCC[N+](C)(C)CCN(Cc1ccc(OC)cc1)c1ncccn1 -0.628% [at 75.8 µM], Cc1cccc(CNc2nc(-c3ccccc3CN(C)C)nc3ccccc23)c1 25.4%, O=S1(=O)CCOC[C@H](CC2CCCCC2)N1Cc1cccc(F)c1 16.4%, O=C(O)P(=O)(O)O -8.97%, COc1ccc(-n2c(=O)cnc3cnc(Oc4cccc(Cl)c4)nc32)cc1 7.33%, CC(C)C(NC(=O)c1ccccn1)c1nnc2n1CCN(Cc1ccc3ccccc3c1)CC2 (centres undefined) 5.18%, CS(=O)(=O)N1CCC2(CC1)CN(C(=O)Nc1ccccc1)C2 5.38%, COc1ccccc1CCn1c(=O)c(-c2ccc(F)c(F)c2)nc2cncnc21 -1.95%, CCN(CC)CCCC(C)Nc1c2ccc(Cl)cc2nc2ccc(OC)cc12 (centres undefined), OCC1OC(Oc2cccc3cccnc23)C(O)C(O)C1O (centres undefined) -4.88%, COc1ccccc1CNc1nc(-c2c(C)noc2C)nc2ccccc12 -14.8%, CC(C)=CCn1cnc2c1c(=O)n(C)c(=O)n2C 18.9%, CN(C)CCCSc1ccccc1NC(=O)/C=C\c1ccccc1 9.49%, COc1ccccc1-c1nc(NCc2ccccc2)c2ccccc2n1 16.4%, Cc1ncc2c(c1CNS(=O)(=O)N(C)C)CCN(C(=O)/C=C/c1ccccc1F)C2 9.07%, O=C(O)[C@@H]1C[C@@H](C(=O)O)N1, Fc1ccc(Nc2ccnc(-c3ccccc3C(F)(F)F)n2)cc1 -23.8%, COc1ccc(-c2nc3cnc(OC)nc3n(CCC#N)c2=O)cc1 -8.56%, C/C=C(\C)C(=O)O[C@H]1C[C@@]2(C)CCC(C(C)C)C2(O)CC[C@@]1(C)O (some centres undefined) 5.42%, CNc1cc(NS(=O)(=O)c2ccc(N)cc2)nc(NC)n1, FC(F)(F)c1ccccc1-c1cc(N2CCNCC2)ncn1 19.8%, CC(=O)OCC1OC(n2c(Br)nc3c(=O)[nH]c(N)nc32)C(OC(C)=O)C1OC(C)=O (centres undefined) 11.9%, CC(C)(C)CC(=O)OCC(=O)[C@@]12OC(C)(C)O[C@@H]1C[C@H]1[C@@H]3CCC4=CC(=O)C=C[C@]4(C)[C@@]3(F)[C@@H](O)C[C@@]12C 26.8%, CCN1C(=O)CC(CC(=O)N2CCC(c3nc4ccc(F)cc4[nH]3)CC2)(c2ccccc2C)C1=O (centres undefined) -9.42%, COc1ccc(Oc2ncc3nc(-c4ccc(OC)cc4)c(=O)n(Cc4cccs4)c3n2)cc1 23.6%, CS(=O)(=O)N1CCC[C@@]2(CCN(C(c3ccccc3)c3ccccc3)C2)C1 -3.49%, Cc1ccc(S(=O)(=O)/C=C\C#N)cc1 13.2%, CC(C)NC(=O)N1CCC2(CC1)CCN(S(C)(=O)=O)CC2 4.91%, Cc1c(C(=O)NCCCc2ccncc2)cnn1-c1nccc(-c2ccccc2F)n1 20.5%, Cc1ccccn1 5.43%, NS(=O)(=O)c1ccc(C(=O)O)cc1 21.3%, Cc1noc(C)c1-c1cncnc1NCCN1CCOCC1 19%, CCCCCCCCCCCCC/C=C/[C@@H](O)[C@H](CO)N(C)C 14% [at 15.3 µM], O=C1CC[C@@H](CN(Cc2cccnc2)C2CCN(c3ccc(NC(=O)c4cnccn4)cc3)CC2)N1 -4.84%, CCNc1ncc2nc(-c3cccs3)c(=O)n(Cc3cccc(OC)c3)c2n1 5.8%, Cc1cccc(CNc2ccnc(-c3ccoc3)n2)c1 17.2%, Cc1ncc2c(c1CNC(=O)c1cncs1)CCN(C(=O)c1cccc(-c3cccc(F)c3)c1)C2 6.39%, OCl 9%, CCC1CN(CCNC(=O)c2ccc3c(c2)OCCO3)Cc2cc(OC)ccc2O1 (centres undefined) 13.7%, O=C(Oc1ccccc1)N1CCC2(CC1)CN(c1ccccn1)C2 -1.95%, O=C(c1csnn1)N1CCC[C@@]2(CCN(c3ccccn3)C2)C1 2.05%, CC(=O)c1ccc2oc3ccccc3c(=O)c2c1 -1.3%, CCN(CC)CCn1c(=O)c(Cc2ccc(OC)cc2)nc2ccccc21 31%, COc1cc(OC)c2nc(-c3cc4c(c(OC)c3)OCCN(Cc3cn(C)nc3C)C4)cc(C)c2c1 7.66%, Cc1cc2c(c(-c3ccc(Cl)cc3)c1)OC(CNC(=O)Cc1c(C)noc1C)C2 (centres undefined) 2.29%, CCOc1ccccc1C(N)=O 2.6%, CSc1nnc(CCNC(=O)/C=C/c2cccc(F)c2)n1-c1ccc(F)cc1 -0.359%, CN(C)c1ncc2nc(-c3cc(F)cc(F)c3)c(=O)n(CCc3ccccc3)c2n1 -15.3%, COc1ccccc1-c1cncnc1N1CCN(C)CC1 3.1%, COC(=O)N1CCC2(CC1)CN(C(c1ccccc1)c1ccccc1)C2 -2.72%, COc1cc(C(=S)N2CCOCC2)ccc1O 4.23%, O=C1OC(c2ccc(O)cc2)(c2ccc(O)cc2)c2ccccc21, O=S1(=O)CCOCCCN1Cc1ccc(F)cc1 13.6%, COc1ccc2c(C)cc(=O)oc2c1 14.3%, C=C[C@@H]1c2cc(C)ccc2N(S(=O)(=O)c2ccc(C)cc2)[C@H](c2ccc(C(C)(F)F)cc2)C1(C#N)C#N 5.8%, CCn1c(-c2cccc(OC)c2)nc2cc(NC(C)=O)cc(C(=O)N3CCCC(C(C)=O)C3)c21 (centres undefined) -2.63%, O=C(Nc1cccc(F)c1)N1CC[C@@]2(CCCN(C(=O)c3ccncc3)C2)C1 16.6%, O=C(C[n+]1ccnc2ccccc21)c1ccc(Br)cc1 19.9%, CC(C)c1c(C(=O)N(C)C2CCN(C)CC2)cnn1-c1nccc(-c2ccco2)n1 12.2%, O=C(Nc1cccc(F)c1)N1CC[C@@]2(CCCN(C(=O)c3cc(C(F)(F)F)cc(C(F)(F)F)c3)C2)C1 -15%, COc1ccc(/C=N/NC(=O)c2ccncc2)cc1OC 15.6%, COc1ccc(O)c(CN2CCOc3c(cc(-c4cccc(OC)n4)cc3OC)C2)c1 10.1%, CC(C)(O)CCC(O)[C@@](C)(O)C1CC[C@]2(O)C3=CC(=O)C4CC(O)C(O)C[C@]4(C)C3CC[C@]12C (some centres undefined) -23.7%, COc1ccccc1-c1coc2cc(O)ccc2c1=O 12.8%, Oc1ccc(C2CNCCc3c2cc(O)c(O)c3Cl)cc1 (centres undefined), COc1ccccc1CNc1ncnc2ccc(-c3c(C)noc3C)cc12 11.7%, CCC1CN(Cc2cccn2-c2ccccn2)Cc2cc(OC)ccc2O1 (centres undefined) 3.39%, CC(C(=O)O)c1cccc(Oc2ccccc2)c1 (centres undefined), COC(=O)c1c(OCc2cccnc2)cc(=O)n2c1CCN(C(=O)c1c3c(nn1C)CCCC3)CC2 9.38%, C[C@@H]1CN(CCCn2c3ccccc3c3ccccc32)C[C@H](C)N1 14.3%, COC1=CC(C)C2CC3OC(=O)CC4C(C)=C(OC)C(=O)C([C@]2(C)C1=O)[C@]34C (some centres undefined) 8.1%, O=c1nc2ccccc2c2n1C[C@H](CN1CCN(c3ccccc3)CC1)N2 8.52%, CN1Cc2c(C(=O)OC(C)(C)C)ncn2-c2ccsc2C1=O -2.79%

Source: PubChem BioAssay AID1645882 (National Center for Advancing Translational Sciences (NCATS), 2021)
